Experimental findings from paper PMC3794922 are described below.

Sequences of proteins named here, by UniProt entry; tags and fusion partners are left off.
UniProt Q96524: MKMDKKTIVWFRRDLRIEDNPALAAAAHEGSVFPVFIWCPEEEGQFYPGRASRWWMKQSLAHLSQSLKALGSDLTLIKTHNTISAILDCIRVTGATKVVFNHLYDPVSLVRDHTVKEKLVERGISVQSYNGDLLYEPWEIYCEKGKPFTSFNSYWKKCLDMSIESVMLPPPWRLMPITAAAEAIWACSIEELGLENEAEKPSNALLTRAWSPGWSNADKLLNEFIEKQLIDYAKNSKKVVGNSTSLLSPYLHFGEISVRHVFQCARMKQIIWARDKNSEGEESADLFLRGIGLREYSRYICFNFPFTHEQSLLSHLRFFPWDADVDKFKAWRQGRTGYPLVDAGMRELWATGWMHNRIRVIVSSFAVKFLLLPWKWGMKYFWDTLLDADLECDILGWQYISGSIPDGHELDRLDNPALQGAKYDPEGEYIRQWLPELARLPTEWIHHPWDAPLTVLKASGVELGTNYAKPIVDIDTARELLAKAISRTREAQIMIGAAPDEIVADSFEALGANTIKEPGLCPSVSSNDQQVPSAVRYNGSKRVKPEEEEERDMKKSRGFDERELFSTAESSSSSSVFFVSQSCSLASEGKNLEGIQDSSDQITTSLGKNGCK

These are yes or no findings as the source states them, for the method shown. Binding seen in cells or lysates may run through a third protein. Some binding calls cover weakened binding; strength is not graded here. For some of these results: Sequences can lack the tags named with a protein.

Experiment [1] concerns the target Arabidopsis thaliana cryptochrome 2 (CRY2), expressed and purified from insect cells (Arabidopsis thaliana) (UniProt Q96524). Briefly: pull-down; CRY2 purified from insect cells incubated with S35-labelled CIB proteins from in vitro transcription/translation (TnT, Promega); complexes pulled down with Ni-affinity beads; only the target purified.
Experiment [2] addresses T1, cCFP–CIB1 (C-terminal half of CFP fused to CIB1) (Arabidopsis thaliana) (UniProt Q8GY61).
T1 sequence: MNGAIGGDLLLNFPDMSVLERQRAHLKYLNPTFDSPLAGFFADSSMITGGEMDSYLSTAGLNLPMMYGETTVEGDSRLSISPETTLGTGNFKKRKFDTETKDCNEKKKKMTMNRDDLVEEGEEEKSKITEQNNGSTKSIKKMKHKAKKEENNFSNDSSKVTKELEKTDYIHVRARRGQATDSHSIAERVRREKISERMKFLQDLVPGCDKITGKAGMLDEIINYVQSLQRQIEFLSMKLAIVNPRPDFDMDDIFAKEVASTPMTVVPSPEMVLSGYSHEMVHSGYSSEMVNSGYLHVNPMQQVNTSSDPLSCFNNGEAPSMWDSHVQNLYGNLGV
Briefly: split reporter; BiFC with cCFP and nYFP fusions co-expressed in N. benthamiana leaf epidermal cells by Agrobacterium infiltration; plants left in continuous white light for 3 days.

The target of experiment [3] is cCFP–CRY2 (C-terminal half of CFP fused to CRY2) (Arabidopsis thaliana) (UniProt Q96524). Described as above.
In experiment [4] the target is CRY2, endogenous in Arabidopsis seedlings (Arabidopsis thaliana (endogenous in seedlings)) (UniProt Q96524). Briefly: co-IP; 12-day-old 35S::Myc-CIB5 seedlings grown in continuous red light, MG132 for 3 hour, exposed to white light or blue light (20 µmol m-2 s-1) for 20 min; anti-CRY2-IgG-coupled protein-A Sepharose, 4°C, 20 mM HEPES pH 7.5, 40 mM KCl, 1 mM EDTA, 1% Triton X-100; blot with anti-Myc.

For experiment [5] the target is unchanged. The experiment can be described thus: co-IP; 12-day-old 35S::Myc-CIB5 seedlings grown in continuous red light, MG132 for 3 hour, exposed to red light for 20 min; anti-CRY2-IgG-coupled protein-A Sepharose, 4°C; blot with anti-Myc.

B1: CIB2 (At5g48560), S35-labelled, in vitro translated (protein, UniProt Q9FJL4 1-498)
chain: MDNELFMNTEFPPPPEMATHFEHQQSSSSAMMLNWALMDPNPHQDSSFLWEKSTEQQQQQSIFDSALSSLVSSPTPSNSNFSGGGGDGFLIRELIGKLGNIGNNNNNSGEIYGTPMSRSASCYATPMSSPPPPTNSNSQMMMNRTTPLTEFSADPGFAERAARFSCFGSRSFNGRTNTNLPINNGNNMVNNSGKLTRVSSTPALKALVSPEVTPGGEFSRKRKSVPKGKSKENPISTASPSPSFSKTAEKNGGKGGSKSSEEKGGKRRREEEDDEEEEGEGEGNKSNNTKPPEPPKDYIHVRARRGQATDSHSLAERVRREKIGERMKLLQDLVPGCNKVTGKALMLDEIINYVQSLQRQVEFLSMKLSSVNDTRLDFNVDALVSKDVMIPSSNNRLHEEGLQSKSSSHHHQQQLNIYNNNSQLLPNISSNNMMLQSPMNSLETSTLARSFTHLPTLTQFTDSISQYQMFSEEDLQSIVGMGVAENPNNESQHMKIEL
modifications: S35 labelled
On to B1, for which, in experiment [1], the binding entry is “binds”.

B2: nYFP-CIB2 (N-terminal half of YFP fused to CIB2) (protein, UniProt Q9FJL4 1-498)
chain: B1 chain
As to B2, the binding result in experiment [2] and in experiment [3] was “binds” each time.

B3: nYFP-CIB4 (N-terminal half of YFP fused to CIB4) (protein, UniProt Q6NKN9 1-366)
chain: MGGESNEGGEMGFKHGDDESGGISRVGITSMPLYAKADPFFSSADWDPVVNAAAAGFSSSHYHPSMAMDNPGMSCFSHYQPGSVSGFAADMPASLLPFGDCGGGQIGHFLGSDKKGERLIRAGESSHEDHHQVSDDAVLGASPVGKRRLPEAESQWNKKAVEEFQEDPQRGNDQSQKKHKNDQSKETVNKESSQSEEAPKENYIHMRARRGQATNSHSLAERVRREKISERMRLLQELVPGCNKITGKAVMLDEIINYVQSLQQQVEFLSMKLATVNPEINIDIDRILAKDLLQSRDRNTPTLGLNPFAGFQGNIPNLSATTNPQYNPLPQTTLESELQNLYQMGFVSNPSTMSSFSPNGRLKPEL
On to B3, for which the binding entry in experiment [2] is on record as “binds”.

B4: CIB3 (At3g07340), S35-labelled, in vitro translated (protein, UniProt Q9SRT2 1-456)
chain: MENELFMNAGVSHPPVMTSPSSSSAMLKWVSMETQPVDPSLSRNLFWEKSTEQSIFDSALSSLVSSPTPSNSNFSVGGVGGENVIMRELIGKLGNIGDIYGITASNGNSCYATPMSSPPPGSMMETKTTTPMAELSGDPGFAERAARFSCFGSRSFNSRTNSPFPINNEPPITTNEKMPRVSSSPVFKPLASHVPAGESSGELSRKRKTKSKQNSPSAVSSSKEIEEKEDSDPKRCKKSEENGDKTKSIDPYKDYIHVRARRGQATDSHSLAERVRREKISERMKLLQDLVPGCNKVTGKALMLDEIINYVQSLQRQVEFLSMKLSSVNTRLDFNMDALLSKDIFPSSNNLMHHQQVLQLDSSAETLLGDHHNKNLQLNPDISSNNVINPLETSETRSFISHLPTLAHFTDSISQYSTFSEDDLHSIIHMGFAQNRLQELNQGSSNQVPSHMKAEL
modifications: S35 labelled
With B4, in experiment [1], the binding result is on record as “binds”.

B5: CIL1 (At1g68920; CIB1 Like protein), S35-labelled, in vitro translated (protein, UniProt Q9CAA9 1-486)
chain: MDLSAKDEFSAEKRNPDNYDSVNNPSGDWRVDSYPSENLISAGPASCSPSQMMDSFGQTLWYDPTSVQAVGYAGFNGGNASSSSFRGSIDRSLEMGWNLPNLLPPKGNGLFLPNASSFLPPSMAQFPADSGFIERAARFSLFSGGNFSDMVNQPLGNSEAIGLFLQGGGTMQGQCQSNELNVGEPHNDVSVAVKESTVRSSEQAKPNVPGSGNVSEDTQSSGGNGQKGRETSSNTKKRKRNGQKNSEAAQSHRSQQSEEEPDNNGDEKRNDEQSPNSPGKKSNSGKQQGKQSSDPPKDGYIHVRARRGQATNSHSLAERVRREKISERMKFLQDLVPGCNKVTGKAVMLDEIINYVQSLQRQVEFLSMKLATVNPQMDFNLEGLLAKDALQLRAGSSSTTPFPPNMSMAYPPLPHGFMQQTLSSIGRTITSPLSPMNGGFKRQETNGWEGDLQNVIHINYGAGDVTPDPQAAATASLPAANMKVEP
modifications: S35 labelled
As to B5, the binding result in experiment [1] is recorded as “no binding”.

B6: nYFP–CIB1 (N-terminal half of YFP fused to CIB1) (protein, UniProt Q8GY61 1-335)
chain: T1 sequence
For B6, in experiment [2], the binding entry is given as “binds”.

B7: Myc-CIB5, in transgenic Arabidopsis seedlings (35S::MycCIB5) (protein, UniProt Q9C670 1-390)
chain: MSDKDEFAAKKKDLVNTPVDLYPPENPMLGPSPMMDSFRETLWHDGGFNVHTDADTSFRGNNNIDIPLEMGWNMAQFPADSGFIERAAKFSFFGCGEMMMNQQQSSLGVPDSTGLFLQDTQIPSGSKLDNGPLTDASKLVKERSINNVSEDSQSSGGNGHDDAKCGQTSSKGFSSKKRKRIGKDCEEEEDKKQKDEQSPTSNANKTNSEKQPSDSLKDGYIHMRARRGQATNSHSLAERVRREKISERMKFLQDLVPGCDKVTGKAVMLDEIINYVQSLQCQIEFLSMKLSAVNPVLDFNLESLLAKDALQSSAPTFPHNMSMLYPPVSYLSQTGFMQPNISSMSLLSGGLKRQETHGYESDHHNLVHMNHETGTAPDHEDTTADMKVEP
As for B7, the binding result was “binds” in experiment [4] and “no binding (condition: red light (no blue light))” in experiment [5].

B8: nYFP-CIB5 (N-terminal half of YFP fused to CIB5) (protein, UniProt Q9C670 1-390)
chain: B7 chain
Turning to B8, the binding entry in experiment [2] and in experiment [3] was “binds” in each case.

B9: CIB5 (At1g26260), S35-labelled, in vitro translated (protein, UniProt Q9C670 1-390)
chain: B7 chain
modifications: S35 labelled
For the molecule B9, in experiment [1], the binding result is “binds”.

B10: CIL2 (At3g23690; CIB1 Like protein), S35-labelled, in vitro translated (protein, UniProt Q9LK48 1-371)
chain: MNMDKETEQTLNYLPLGQSDPFGNGNEGTIGDFLGRYCNNPQEISPLTLQSFSLNSQISENFPISGGIRFPPYPGQFGSDREFGSQPTTQESNKSSLLDPDSVSDRVHTTKSNSRKRKSIPSGNGKESPASSSLTASNSKVSGENGGSKGGKRSKQDVAGSSKNGVEKCDSKGDNKDDAKPPEAPKDYIHVRARRGQATDSHSLAERARREKISERMTLLQDLVPGCNRITGKAVMLDEIINYVQSLQRQVEFLSMKLATVNPRMEFNANASLSTEMIQPGESLTQSLYAMACSEQRLPSAYYSLGKNMPRFSDTQFPSNDGFVHTETPGFWENNDLQSIVQMGFGDILQQQSNNNNNNCSEPTLQMKLEP
modifications: S35 labelled
Consider B10, for which the binding entry in experiment [1] is “no binding”.
